This test concerns the target TrpE alone (Escherichia coli (strain K12), UniProt P00895). The test can be described thus: Western ligand blot with 35S-methionine labeled GST-YES-SH3. Here is the method:
FIG. 5. Binding between YAP65 and Yes in vitro. (A) TrpE-YAP65 fusion protein (2,4,5,6,7) or TrpE alone (1,3) were probed on Western blots with ^35S-methionine labeled GST-Yes-SH3 alone (2) or with radioactive GST-Yes-SH3 supplemented with 10 µM of cold GST-Yes-SH3 (4); Lane 5 is as in lane 2 but the incubation was in the presence of SPLAP peptide (200 µM); lanes 6 and 7, the binding was competed with 50 µM and 200 µM of the PLAP peptide, respectively. The arrow indicates partially purified TrpE-YAP65 fusion protein. Lower migrating protein bands represent products of proteolytic degradation. Even if an increased concentration of protease inhibitors and careful purification protocols were used, we always observed limited degradation of the TrpE-YAP65 protein. Equal amounts (8 µg) of TrpE-fusion protein or TrpE protein were loaded into each lane of the SDS-polyacrylamide gel and transferred to nitrocellulose. (B) Differential binding of ^35S-labeled TrpE-YAP65 fusion protein to various fusion proteins containing SH3 domains. Before the Western transfer, we had loaded equal amounts (1 µg) of purified proteins into each lane of the SDS gel. An SDS-polyacrylamide gel was run in parallel and stained with Coomassie Blue to confirm equal concentrations of the purified proteins. […]

Here are results for one molecule from US6034212, “SH3 kinase domain associated protein, a signalling domain therein, nucleic acids encoding the protein and the domain, and diagnostic and therapeutic uses thereof” (The Rockefeller University, dated 2000).

B1: GST-SH3-Yes fusion protein (other)
chain: GGVTVFVALYDYEARTTDDLSFKKGERFQIINNTEGDWWEARSIATGKTGYIPSNYVAPADS
modifications: 35S-methionine labeled when used as probe
For the molecule B1, the binding result is recorded as “no binding”.
